# According to PMC4336329 (PLoS ONE, 2015):
# In all, about 310,000 compounds went through this assay and about 14,000 (4.5%) showed an effect of 50% or more. Effects have a minus sign here. The list shows a part of the results.
# Target: human ether-à-go-go-related gene (hERG) potassium channel (human, UniProt Q12809)
# Assay: primary screen, population patch clamp on CHO cells stably expressing hERG
# Procedure: Briefly, Chinese hamster ovary (CHO) cells stably expressing the hERG channel were dislodged from tissue culture flasks and dispensed into PPC plates. […] During the recording, background leak currents were estimated by a 100 ms step to -80 mV from an initial holding potential of -70 mV and subtracted from the subsequent current measurement. The campaign was conducted in two phases using slight differences in recording protocol. In the first phase, the initial voltage pulse used a 100 ms step to -30 mV from a holding potential of -70 mV, a 2 s conditioning step to +25 mV, and a 2 s test step to -30 mV. During the second phase of the screen, the potential during the conditioning step was raised to +45 mV. In both phases of the campaign, a secondary voltage pulse was applied using the same parameters as the second phase initial pulse. The initial and secondary pulses were applied in the absence of compound, and upon application of 1 μM and 10 μM test concentrations. […]
# 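Also: peak tail current of the secondary pulse compared with the same well before compound.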
# Sequence of human ether-à-go-go-related gene (hERG) potassium channel (Q12809 whole entry, looked up): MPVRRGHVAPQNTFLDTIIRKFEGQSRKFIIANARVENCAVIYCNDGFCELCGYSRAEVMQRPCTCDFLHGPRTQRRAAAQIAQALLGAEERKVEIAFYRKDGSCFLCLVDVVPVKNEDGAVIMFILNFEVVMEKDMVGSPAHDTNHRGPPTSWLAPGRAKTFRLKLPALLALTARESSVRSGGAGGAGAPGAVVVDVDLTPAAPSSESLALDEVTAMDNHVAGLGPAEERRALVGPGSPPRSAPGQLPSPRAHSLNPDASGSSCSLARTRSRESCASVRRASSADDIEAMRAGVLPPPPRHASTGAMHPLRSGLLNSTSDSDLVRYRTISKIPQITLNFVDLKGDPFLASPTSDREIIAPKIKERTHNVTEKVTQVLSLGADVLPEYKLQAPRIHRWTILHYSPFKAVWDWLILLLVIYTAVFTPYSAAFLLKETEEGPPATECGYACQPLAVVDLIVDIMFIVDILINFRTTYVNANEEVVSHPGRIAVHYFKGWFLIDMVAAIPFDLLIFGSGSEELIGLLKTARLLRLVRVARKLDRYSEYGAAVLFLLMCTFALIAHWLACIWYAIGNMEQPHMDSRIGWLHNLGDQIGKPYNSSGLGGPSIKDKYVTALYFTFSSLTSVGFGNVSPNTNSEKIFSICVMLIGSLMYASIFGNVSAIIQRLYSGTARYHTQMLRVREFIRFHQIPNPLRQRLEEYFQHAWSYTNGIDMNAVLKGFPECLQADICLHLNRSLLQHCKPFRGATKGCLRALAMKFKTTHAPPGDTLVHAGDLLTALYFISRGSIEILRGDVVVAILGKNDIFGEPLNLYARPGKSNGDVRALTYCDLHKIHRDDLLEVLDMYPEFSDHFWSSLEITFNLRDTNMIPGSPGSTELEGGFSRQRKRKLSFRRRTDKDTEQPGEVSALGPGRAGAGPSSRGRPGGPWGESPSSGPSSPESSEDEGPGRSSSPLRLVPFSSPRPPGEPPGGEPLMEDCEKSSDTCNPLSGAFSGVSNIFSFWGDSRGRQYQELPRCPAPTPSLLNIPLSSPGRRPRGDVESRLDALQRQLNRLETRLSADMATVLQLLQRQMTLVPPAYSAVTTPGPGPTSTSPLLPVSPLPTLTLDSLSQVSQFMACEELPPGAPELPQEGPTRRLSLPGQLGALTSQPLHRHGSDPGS
row,SMILES,"hERG current change (%, negative = inhibition) at 10uM"
1,CN(CC(=O)Nc1ccc(Cl)c(C(F)(F)F)c1)C(=O)c1cccc2cccnc12,-28.8%
2,Cc1nc(COc2cc3oc(=O)cc(C)c3cc2Cl)cs1,23.9%
3,COc1ccc(C/C(C)=N/NC(=S)Nc2ccccc2F)cc1,15.6%
4,COc1cccc(CN2CCN(C(=O)COc3ccc4ccccc4c3)CC2)c1,-38.7%
5,COC(=O)C1CN(C(=O)C(C)Oc2ccccc2Cl)c2ccccc2O1 (stereo not drawn),-5.05%
6,CCOc1ccccc1NC(=O)CN(C)S(=O)(=O)c1ccc(OC)c(C)c1,-17.1%
7,COC(=O)C1=C(c2cccc(C#N)c2)C[C@@H]2CC[C@H]1N2C(=O)NC1Cc2ccccc2C1,-27.8%
8,N#Cc1ccccc1S(=O)(=O)N1CCN(c2ccc(S(=O)(=O)N3CCOCC3)cn2)CC1,-5.93%
9,O=C(O)CSc1cccnc1Sc1ccc(Cl)cc1,-3.14%
10,Cn1c(S(=O)(=O)Cc2ccc(Cl)cc2)nc2ccccc21,-10.5%
11,Cc1cc(NC(=O)c2ccc(NC(=O)C(C)C)cc2)no1,-3.1%
12,CN(C(=O)c1ccco1)c1nnc(-c2ccc(F)cc2)s1,4%
13,Cc1cc(O)c(NC(=O)c2ccc(Br)o2)cc1C,-7.04%
14,COc1ccc(C(=O)NNC(=O)CSc2nnc(-c3cccnc3)n2C)cc1,6.7%
15,Cc1[nH]n(-c2ccccc2)c(=O)c1C(c1cccc([N+](=O)[O-])c1O)c1c(C)[nH]n(-c2ccccc2)c1=O,-8.12%
16,O=C(c1ccc(Cl)cc1)N1C2C=CC(C2)C1(C(F)(F)F)C(F)(F)F (stereo not drawn),2.47%
17,CN(C)C=C1C(=O)N(C2CCCCC2)C(=O)N(C2CCCCC2)C1=O,-4.34%
18,Cn1cccc1C(=O)NNC(=O)COc1ccc(C#N)cc1,-4.5%
19,Cc1cccc2sc(N(CCCN(C)C)C(=O)CCc3ccccc3)nc12.Cl,-54.1%

row,SMILES,"hERG current change (%, negative = inhibition) at 10uM"
1,CC1(C)CSC(=NCCc2ccccc2)N1,23.2%
2,COc1ccccc1CNS(=O)(=O)c1cc2c3c(c1)CCC(=O)N3CCC2,-17%
3,COc1ccc(C(=O)NCCC2=CCCCC2)cc1OC,-3.21%
4,O=C(Nc1n[nH]c(C2CCCCC2)n1)C1CCCCC1,-5.38%
5,CC(C)(C)NC(=O)C1CCN(C(=O)c2ccco2)CC1,11.1%
6,Cc1ccc(C)c(OCc2cc(C(=O)N3CCOCC3)no2)c1,-3.82%
7,Cc1cc(C)n2nc(SCc3ccc(F)cc3Cl)nc2n1,-4.5%
8,O=C(CC1C(=O)NCCN1Cc1ccc(-c2ccccc2)cc1)NCCc1ccccn1 (stereo not drawn),-12.6%
9,Cn1c(Cc2ccc3c(c2)OCO3)nnc1SCC(=O)NC(C)(C)C,22.7%
10,COc1ccc(CNC(=S)N/N=C/c2ccc(O)c(OC)c2)cc1,-5.52%
11,CC(=O)Nc1ccc(N(C(=O)c2ccco2)C(C(=O)NC2CCCC2)c2cccs2)cc1 (stereo not drawn),6.35%
12,Cc1cccc(C)c1Nc1nnc(SCc2nc3ccccc3s2)s1,-15.9%
13,Cc1ccc(C(=O)NCCc2nnc3ccc(NCCCN4CCOCC4)nn23)cc1,14.4%
14,CCc1cc(OCCN(C)C)ccc1Cl.O=C(O)C(=O)O,17.7%
15,O=C(NCc1ccccn1)C(=O)NCc1ccccn1,19.8%
16,COc1ccccc1CNC(=O)C1CC(c2ccc([N+](=O)[O-])cc2)=NO1 (stereo not drawn),-12.3%
17,COC(=O)c1[nH]c2cc(C)ccc2c1NC(=O)CN1CCN(c2ccccc2OC)CC1,-24.1%
18,Cc1ccn2cc(CCNS(=O)(=O)c3ccc4c(c3)OCCO4)nc2c1,-0.964%
19,O=C(NCCc1nc2ccccc2[nH]1)c1ccc(Cl)c([N+](=O)[O-])c1,-56.2%

row,SMILES,"hERG current change (%, negative = inhibition) at 10uM"
1,CCN1CCCC1CNC(=O)C(=O)Nc1ccc(OC)cc1 (stereo not drawn),-5.95%
2,CCCCn1c(SCC(=O)NC(=O)Cc2ccccc2)nc2ccccc2c1=O,8.67%
3,CC(C)C(=O)N1CCC(Cc2ccccc2)CC1,4.6%
4,COc1ccc(-c2nc3n(n2)C(c2ccccc2)C2=C(CCCC2=O)N3)cc1OC (stereo not drawn),-11.3%
5,CCOC(=O)/C(C#N)=C\c1cccnc1,20.2%
6,COc1cc(/C=N/NC(=O)Cc2nnc(NC(=O)c3ccccc3)s2)ccc1O,8.17%
7,COC(=O)c1ccc(C(=O)OC)c(NC(=O)/C=C/C(=O)O)c1,5.06%
8,O=[N+]([O-])c1cccc(/C=N/Nc2cc(Cl)nc(-c3ccccc3)n2)c1,4.14%
9,Cc1nnc(SCC(=O)Nc2ccccc2)n(N)c1=O,2.08%
10,CCC(C)NC(=O)c1cc(Cl)c(NC(=O)C2=C(C)OCCS2)cc1OC (stereo not drawn),-27.7%
11,COc1cccc(N2CC(C(=O)Nc3ccc(C(=O)OC(C)C)cc3)CC2=O)c1 (stereo not drawn),9.03%
12,CCOc1ccc2[nH]c(=O)c(CN(CC3CCCN3CC)C(=O)NCc3ccccc3)cc2c1 (stereo not drawn),-63.2%
13,O=C1CCCc2ccccc2N1,22.3%
14,Cc1cc(Nc2ccccc2)nc(N2CCN(C(=O)c3ccc4c(c3)OCO4)CC2)n1,-17.3%
15,CCOC(=O)Cc1csc(NC(=O)CSc2nc(-c3ccccc3)c(C#N)c(=O)[nH]2)n1,34.6%
16,Nc1c(N=Nc2ccccc2F)c(=O)[nH]n1-c1ccccc1,29.5%
17,CC(=O)c1ccc(NC(=O)Nc2sc(NS(=O)(=O)c3ccccc3)nc2C)cc1,15.9%
18,Cn1ccnc1SCC(=O)Nc1ccc(Cl)cn1,-14.5%
19,Cc1ccc(NC(=O)CSc2nnnn2C2CCCC2)cc1S(=O)(=O)N1CCOCC1,-14.3%
